# In the supplement of paper PMC8728848:
# This is one part of the list.
# B1: Mermaid3 (Stilbonema majum) (protein)
# chain: MGSSHHHHHHSSGLVPRGSHMAASGWLRSPQGTVVKLYRRSLSWSKADEFCKDVDGRLVVDRTADMHLFLIKNVLKEKKSRVWVGLRRTASHSRTWIWSDGTRQNEGDLDANLWLRDEPNDAAGEEECALFMYSPWEKAWGLNDYLCRGGCRNYQFICEKWIR
# Tests used:
# Assay in all cases: glycan array binding signal (z-score within array); higher = stronger binding
# Settings in all cases: glycan notation: IUPAC condensed, linker removed
# [1] = biological target: Gal(b1-4)GlcNAc(b1-3)Gal(b1-4)GlcNAc(b1-2)[Gal(b1-4)GlcNAc(b1-3)Gal(b1-4)GlcNAc(b1-6)]Man(a1-6)[Gal(b1-4)GlcNAc(b1-3)Gal(b1-4)GlcNAc(b1-2)Man(a1-3)]Man(b1-4)GlcNAc(b1-4)GlcNAc
# Method in brief: (§1)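 From the Consortium for Functional Glycomics database, 3228 arrays were curated, keeping only those whose protein sequence was available. Binding is given as a within-array Z-score averaged across arrays sharing a protein sequence and across linkers. Negative Z-scores can be read as non-binding.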
# [2] = biological target: Gal(b1-4)GlcNAc(b1-3)Gal(b1-4)GlcNAc(b1-2)[Gal(b1-4)GlcNAc(b1-3)Gal(b1-4)GlcNAc(b1-6)]Man(a1-6)[Gal(b1-4)GlcNAc(b1-3)Gal(b1-4)GlcNAc(b1-2)Man(a1-3)]Man(b1-4)GlcNAc(b1-4)[Fuc(a1-6)]GlcNAc
# Method in brief: as §1
# [3] = biological target: Gal(b1-4)GlcNAc(b1-3)Gal(b1-4)GlcNAc(b1-3)Gal(b1-4)GlcNAc
# Method in brief: as §1
# [4] = biological target: Gal(b1-4)GlcNAc(b1-3)Gal(b1-4)GlcNAc(b1-3)Gal(b1-4)GlcNAc(b1-2)Man(a1-3)[Gal(b1-4)GlcNAc(b1-3)Gal(b1-4)GlcNAc(b1-3)Gal(b1-4)GlcNAc(b1-2)Man(a1-6)]Man(b1-4)GlcNAc(b1-4)GlcNAc
# Method in brief: as §1
# [5] = biological target: Gal(b1-4)GlcNAc(b1-3)Gal(b1-4)GlcNAc(b1-3)Gal(b1-4)GlcNAc(b1-2)Man(a1-3)[Gal(b1-4)GlcNAc(b1-3)Gal(b1-4)GlcNAc(b1-3)Gal(b1-4)GlcNAc(b1-2)Man(a1-6)]Man(b1-4)GlcNAc(b1-4)[Fuc(a1-6)]GlcNAc
# Method in brief: as §1
# [6] = biological target: Gal(b1-4)GlcNAc(b1-3)Gal(b1-4)GlcNAc(b1-3)Gal(b1-4)GlcNAc(b1-2)[Gal(b1-4)GlcNAc(b1-3)Gal(b1-4)GlcNAc(b1-3)Gal(b1-4)GlcNAc(b1-6)]Man(a1-6)[Gal(b1-4)GlcNAc(b1-3)Gal(b1-4)GlcNAc(b1-3)Gal(b1-4)GlcNAc(b1-2)Man(a1-3)]Man(b1-4)GlcNAc(b1-4)[Fuc(a1-6)]GlcNAc
# Method in brief: as §1
# [7] = biological target: Gal(b1-4)GlcNAc(b1-3)Gal(b1-4)GlcNAc(b1-3)Gal(b1-4)GlcNAc(b1-3)Gal(b1-4)GlcNAc(b1-2)Man(a1-3)[Gal(b1-4)GlcNAc(b1-3)Gal(b1-4)GlcNAc(b1-3)Gal(b1-4)GlcNAc(b1-3)Gal(b1-4)GlcNAc(b1-2)Man(a1-6)]Man(b1-4)GlcNAc(b1-4)GlcNAc
# Method in brief: as §1
# [8] = biological target: Gal(b1-4)GlcNAc(b1-3)Gal(b1-4)GlcNAc(b1-3)Gal(b1-4)GlcNAc(b1-3)Gal(b1-4)GlcNAc(b1-2)Man(a1-3)[Gal(b1-4)GlcNAc(b1-3)Gal(b1-4)GlcNAc(b1-3)Gal(b1-4)GlcNAc(b1-3)Gal(b1-4)GlcNAc(b1-2)Man(a1-6)]Man(b1-4)GlcNAc(b1-4)[Fuc(a1-6)]GlcNAc
# Method in brief: as §1
# [9] = biological target: Gal(b1-4)GlcNAc(b1-3)Gal(b1-4)GlcNAc(b1-3)Gal(b1-4)GlcNAc(b1-3)Gal(b1-4)GlcNAc(b1-2)[Gal(b1-4)GlcNAc(b1-3)Gal(b1-4)GlcNAc(b1-3)Gal(b1-4)GlcNAc(b1-3)Gal(b1-4)GlcNAc(b1-6)]Man(a1-6)[Gal(b1-4)GlcNAc(b1-3)Gal(b1-4)GlcNAc(b1-3)Gal(b1-4)GlcNAc(b1-3)Gal(b1-4)GlcNAc(b1-2)Man(a1-3)]Man(b1-4)GlcNAc(b1-4)[Fuc(a1-6)]GlcNAc
# Method in brief: as §1
# [10] = biological target: Gal(b1-4)GlcNAc(b1-3)Gal(b1-4)GlcNAc(b1-3)Gal(b1-4)GlcNAc(b1-3)Gal(b1-4)GlcNAc(b1-3)Gal(b1-4)GlcNAc(b1-2)Man(a1-3)[Gal(b1-4)GlcNAc(b1-3)Gal(b1-4)GlcNAc(b1-3)Gal(b1-4)GlcNAc(b1-3)Gal(b1-4)GlcNAc(b1-3)Gal(b1-4)GlcNAc(b1-2)Man(a1-6)]Man(b1-4)GlcNAc(b1-4)GlcNAc
# Method in brief: as §1
# [11] = biological target: Gal(b1-4)GlcNAc(b1-3)Gal(b1-4)GlcNAc(b1-3)Gal(b1-4)GlcNAc(b1-3)Gal(b1-4)GlcNAc(b1-3)Gal(b1-4)GlcNAc(b1-2)Man(a1-3)[Gal(b1-4)GlcNAc(b1-3)Gal(b1-4)GlcNAc(b1-3)Gal(b1-4)GlcNAc(b1-3)Gal(b1-4)GlcNAc(b1-3)Gal(b1-4)GlcNAc(b1-2)Man(a1-6)]Man(b1-4)GlcNAc(b1-4)[Fuc(a1-6)]GlcNAc
# Method in brief: as §1
# [12] = biological target: Gal(b1-4)GlcNAc(b1-3)Gal(b1-4)GlcNAc(b1-3)Gal(b1-4)GlcNAc(b1-3)Gal(b1-4)GlcNAc(b1-3)Gal(b1-4)GlcNAc(b1-2)[Gal(b1-4)GlcNAc(b1-3)Gal(b1-4)GlcNAc(b1-3)Gal(b1-4)GlcNAc(b1-3)Gal(b1-4)GlcNAc(b1-3)Gal(b1-4)GlcNAc(b1-6)]Man(a1-6)[Gal(b1-4)GlcNAc(b1-3)Gal(b1-4)GlcNAc(b1-3)Gal(b1-4)GlcNAc(b1-3)Gal(b1-4)GlcNAc(b1-3)Gal(b1-4)GlcNAc(b1-2)Man(a1-3)]Man(b1-4)GlcNAc(b1-4)[Fuc(a1-6)]GlcNAc
# Method in brief: as §1
# [13] = biological target: Gal(b1-4)GlcNAc(b1-3)Gal(b1-4)GlcNAc(b1-3)Gal(b1-4)GlcNAc(b1-3)Gal(b1-4)GlcNAc(b1-3)Gal(b1-4)GlcNAc(b1-3)Gal(b1-4)GlcNAc(b1-2)Man(a1-3)[Gal(b1-4)GlcNAc(b1-3)Gal(b1-4)GlcNAc(b1-3)Gal(b1-4)GlcNAc(b1-3)Gal(b1-4)GlcNAc(b1-3)Gal(b1-4)GlcNAc(b1-3)Gal(b1-4)GlcNAc(b1-2)Man(a1-6)]Man(b1-4)GlcNAc(b1-4)GlcNAc
# Method in brief: as §1
# [14] = biological target: Gal(b1-4)GlcNAc(b1-3)Gal(b1-4)GlcNAc(b1-3)GalNAc
# Method in brief: as §1
# [15] = biological target: Gal(b1-4)GlcNAc(b1-3)Gal(b1-4)GlcNAc(b1-3)[Gal(b1-4)GlcNAc(b1-3)Gal(b1-4)GlcNAc(b1-6)]GalNAc
# Method in brief: as §1
# [16] = biological target: Gal(b1-4)GlcNAc(b1-3)Gal(b1-4)GlcNAc(b1-6)[Gal(b1-3)]GalNAc
# Method in brief: as §1
# [17] = biological target: Gal(b1-4)GlcNAc(b1-3)Gal(b1-4)[Fuc(a1-3)]GlcNAc(b1-3)Gal(b1-4)[Fuc(a1-3)]GlcNAc
# Method in brief: as §1
# [18] = biological target: Gal(b1-4)GlcNAc(b1-3)GalNAc
# Method in brief: as §1
# [19] = biological target: Gal(b1-4)GlcNAc(b1-3)[Fuc(a1-3)GlcNAc(b1-6)]Gal(b1-4)Glc
# Method in brief: as §1
# [20] = biological target: Gal(b1-4)GlcNAc(b1-3)[Gal(b1-4)GlcNAc(b1-6)]Gal(b1-4)GlcNAc
# Method in brief: as §1
# [21] = biological target: Gal(b1-4)GlcNAc(b1-3)[GlcNAc(b1-6)]Gal(b1-4)GlcNAc
# Method in brief: as §1
# [22] = biological target: Gal(b1-4)GlcNAc(b1-6)Gal(b1-4)GlcNAc
# Method in brief: as §1
binder,measurement,setting,value
B1,glycan array binding signal (z-score),[1],3.51
same,glycan array binding signal (z-score),[2],-0.136
same,glycan array binding signal (z-score),[3],-0.799
same,glycan array binding signal (z-score),[4],-0.127
same,glycan array binding signal (z-score),[5],-0.217
same,glycan array binding signal (z-score),[6],0.233
same,glycan array binding signal (z-score),[7],0.149
same,glycan array binding signal (z-score),[8],-0.034
same,glycan array binding signal (z-score),[9],0.088
same,glycan array binding signal (z-score),[10],-0.088
same,glycan array binding signal (z-score),[11],-0.537
same,glycan array binding signal (z-score),[12],0.124
same,glycan array binding signal (z-score),[13],-0.526
same,glycan array binding signal (z-score),[14],-0.185
same,glycan array binding signal (z-score),[15],-0.118
same,glycan array binding signal (z-score),[16],0.599
same,glycan array binding signal (z-score),[17],-0.554
same,glycan array binding signal (z-score),[18],-0.501
same,glycan array binding signal (z-score),[19],-0.182
same,glycan array binding signal (z-score),[20],-0.074
same,glycan array binding signal (z-score),[21],4.93
same,glycan array binding signal (z-score),[22],-0.287
